# In PubChem BioAssay AID360 (National Center for Advancing Translational Sciences (NCATS), 2006):
# Among all 48,000 compounds or so, about 550 (1.1%) were called active. Roughly 4% stayed inconclusive and do not appear here. Cut-off read from the data, not from the text of the source: active = potency below about 15 µM; inconclusive = mostly about 16 µM to 33 µM; inactive = weaker than that. Some of the results follow.
# Molecular target: Lysosomal acid glucosylceramidase (Homo sapiens) (UniProt P04062)
# UniProt P04062, sequence (P04062 whole entry, looked up): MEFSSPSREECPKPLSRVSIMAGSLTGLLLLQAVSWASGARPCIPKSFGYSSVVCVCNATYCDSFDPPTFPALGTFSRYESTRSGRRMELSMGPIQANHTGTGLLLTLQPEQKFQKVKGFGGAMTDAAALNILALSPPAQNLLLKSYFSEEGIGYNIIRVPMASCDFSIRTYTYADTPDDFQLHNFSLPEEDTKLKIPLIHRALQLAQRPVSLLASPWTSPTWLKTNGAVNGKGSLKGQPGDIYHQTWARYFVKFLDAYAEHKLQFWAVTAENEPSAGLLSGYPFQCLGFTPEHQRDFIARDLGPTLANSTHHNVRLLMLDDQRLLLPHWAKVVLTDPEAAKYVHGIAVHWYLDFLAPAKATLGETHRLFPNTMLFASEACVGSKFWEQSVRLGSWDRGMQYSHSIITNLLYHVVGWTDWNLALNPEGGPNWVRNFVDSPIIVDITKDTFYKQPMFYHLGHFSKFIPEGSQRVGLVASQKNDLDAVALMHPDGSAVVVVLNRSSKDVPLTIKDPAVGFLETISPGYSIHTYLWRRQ
# Experiment: Glucocerebrosidase;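 note: the screen sought inhibitors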
# Details: purified enzyme, resorufin glucoside fluorescence (screen aimed at inhibitors), 20 min
# Method in brief: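 Compounds titrated against 0.2 nM normal enzyme, 30 uM resorufin beta-D-glucopyranoside substrate, citrate/phosphate buffer with taurocholate and tween-20, pH 5.9. Reaction ran 20 min at room temperature; fluorescence (Ex 548/Em 600) gave AC50.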
# Potency is the fitted concentration of half-maximal effect.
row,Compound,Potency
1,CCOC(=O)C1CCN(C(=O)c2oc3ccc(S(=O)(=O)N4CC(C)CC(C)C4)cc3c2C)CC1 (stereo not given),inactive: > 76.9 µM
2,COC(=O)c1c(N)n(-c2cc(OC)cc(OC)c2)c2nc3ccccc3nc12,inactive: > 76.9 µM
3,CCC(CC)COC(=O)C(C#N)c1nc2ccccc2nc1N1CCOCC1 (stereo not given),inactive: > 76.9 µM
4,CCc1cccc(NC(=O)CN(C)S(=O)(=O)c2cnc[nH]2)c1,inactive: > 76.9 µM
5,CN(CC(=O)Nc1ccc(F)c(Cl)c1)S(=O)(=O)c1cccc2nsnc12,inactive: > 76.9 µM
6,N#Cc1cnn(Cc2ccc(Cl)cc2)c1N,inactive: > 76.9 µM
7,CC(=O)c1c(C)[nH]c(C(=O)N2CCc3ccccc32)c1C,inactive: > 76.9 µM
8,O=c1[nH]cnc2c1N1CCC2CC1,inactive: > 76.9 µM
9,COc1cc(NC(=O)CSc2nc(C)cs2)cc(OC)c1,inactive: > 76.9 µM
10,CCOC(=O)C1=C(C)NC(=O)NC1c1cc(Br)c(O)c(OC)c1 (stereo not given),inactive: > 76.9 µM
11,Cc1ccc(C)c(N2CCN(C(=O)CN3C(=O)c4ccccc4C3=O)CC2)c1,inactive: > 76.9 µM
12,CC1=C(C(=O)OC(C)C)C(C)C(C(=O)OC(C)C)=C(C)N1,inactive
13,COC(=O)c1ccc(NC(=O)CCn2c(=O)oc3ccccc32)cc1,inactive: > 76.9 µM
14,COc1cccc(C2/C(=C(/O)c3ccncc3)C(=O)C(=O)N2CCCN(C)C)c1 (stereo not given),inactive: > 76.9 µM
15,CCOC(=O)c1sc(=NC(=O)c2cc(OC)c(OC)c(OC)c2)n(C)c1C,inactive: > 76.9 µM
16,O=C(NCC1CCCO1)c1cccc(N2CCCC2=O)c1 (stereo not given),inactive: > 76.9 µM
17,CCn1c(SCC(=O)Nc2ccc(OC)c(OC)c2)nnc1-c1cccs1,inactive: > 76.9 µM
18,COc1ccccc1OCCC(=O)OCCN1C(=O)c2ccccc2C1=O,inactive: > 76.9 µM
19,Cc1cc(C)c(C#N)c(SCS(=O)c2ccc(C(C)(C)C)cc2)n1 (stereo not given),inactive: > 76.9 µM
20,Cc1cc(C)c2c(n1)nn1c(NCCOCCO)cc(C)nc21,inactive: > 76.9 µM
21,CN(C(=O)c1ccc(S(=O)(=O)NC2CCCC2)cc1)C1CCCCC1,inactive: > 76.9 µM
22,COCCCNC(c1ccccc1)c1ccncc1 (stereo not given),inactive: > 76.9 µM
23,O=C(CSc1nnnn1-c1cccc2ccccc12)N1CCOCC1,inactive: > 76.9 µM

row,Compound,Potency
1,COCCn1c(=O)[nH]c2cc(C(=O)NCCN3CCN(c4ccccc4F)CC3)ccc2c1=O,inactive: > 76.9 µM
2,O=C(CSc1nnc(CNc2ccc(F)cc2)o1)N1CCN(C(=O)c2ccco2)CC1,inactive: > 76.9 µM
3,CCn1c(CNc2ccc(Cl)cc2)nnc1SCC(=O)NCc1ccccc1,inactive: > 76.9 µM
4,CC1(C)CC(=O)C2=C(C1)OC(N)=C(C#N)C21C(=O)N2CCCc3cccc1c32 (stereo not given),inactive: > 76.9 µM
5,COc1ccc(OCC(=O)Nc2ccc(S(=O)(=O)Nc3cc(C)nc(C)n3)cc2)cc1,inactive: > 76.9 µM
6,COc1ccc(N(CN2C(=O)c3ccccc3C2=O)C(=O)C(C)C)cc1,inactive: > 76.9 µM
7,CN1C(=O)c2ccccc2C(C(=O)NCc2ccco2)C1c1c[nH]c2ccccc12 (stereo not given),inactive: > 76.9 µM
8,CCc1c(C)nc2ncnn2c1N1CCC(C(=O)NCc2ccc3c(c2)OCO3)CC1,inactive: > 76.9 µM
9,Cc1cc(NC(=O)c2ccco2)ncc1NC(=O)Cc1ccccc1,inactive: > 76.9 µM
10,CCOC(=O)c1cccc(NC(=O)CSc2nnc(-c3ccoc3C)n2CCOC)c1,inactive: > 76.9 µM
11,Cc1c2c(nc3nc4ccccc4n13)CCCC2=O,inactive: > 76.9 µM
12,Cn1cnnc1SCC(=O)N(Cc1ccc2c(c1)OCO2)C1(C(=O)NC2CCCCC2)CCCC1,inactive: > 76.9 µM
13,CCOC(=O)C(C)n1nc(C)c2sc3ccccc3c2c1=O (stereo not given),inactive: > 76.9 µM
14,CCCN1CCN(CCCNC(=O)CN2C(=O)COc3ccccc32)CC1,inactive: > 76.9 µM
15,CC(NS(C)(=O)=O)C(c1cccs1)N1CCN(c2ccccc2F)CC1 (stereo not given),inactive: > 76.9 µM
16,O=C(CC12CC3CC(CC(C3)C1)C2)N1CCCOC1,inactive: > 76.9 µM
17,COC(=O)c1cc(Br)c(=O)n(CCN(C(C)C)C(C)C)c1,inactive: > 76.9 µM
18,CCOC(=O)C1CCCN(C(=O)c2cc(-c3ccccc3)on2)C1 (stereo not given),inactive: > 76.9 µM
19,COc1ccc(OCCCN2CCCC(C)C2)cc1 (stereo not given),inactive: > 76.9 µM
20,Cc1cc(OC(=O)c2ccccc2)n(CCC#N)n1,inactive: > 76.9 µM
21,Cc1ccc2[nH]c3c(c2c1)CN(C(=O)CN1CCN(c2cccc(C)c2C)CC1)CC3,inactive: > 76.9 µM
22,CCCCN1C(=O)CC(Nc2ccc(CC)cc2)C1=O (stereo not given),inactive: > 76.9 µM
23,CCN(CC)CCCNC(=O)C1c2ccccc2Oc2ccccc21,inactive: > 76.9 µM

row,Compound,Potency
1,CCc1ccccc1NC(=O)c1nnn(CC(=O)Nc2ccccc2C)c1N,inactive: > 76.9 µM
2,O=C(NCCCn1ccnc1)c1ccc(Cl)c(S(=O)(=O)N2CCOCC2)c1,inactive: > 76.9 µM
3,O=C(Nc1nc(-c2ccc(S(=O)(=O)N3CCCC3)cc2)cs1)c1ccco1,inactive
4,c1ccc(N2CCN(c3ncnc4sc5c(c34)CCC5)CC2)cc1,inactive: > 76.9 µM
5,Cc1nc(C)c(C(=O)C2=C(O)C(=O)N(CCCn3ccnc3)C2c2ccc(Cl)cc2)s1 (stereo not given),inactive: > 76.9 µM
6,Clc1ccc(OCc2nc(-c3ccncc3)no2)c(Cl)c1,inactive: > 76.9 µM
7,OC(CN1CCCCC1)CN(c1ccccc1)c1ccccc1 (stereo not given),inactive: > 76.9 µM
8,CCOC(=O)c1cc2c(=O)n3ccccc3nc2n(CCOC)c1=NC(=O)c1ccncc1,inactive: > 76.9 µM
9,Cc1ccc(-c2cn3c(n2)CCCC3)cc1,inactive: > 76.9 µM
10,Nc1ccc(N2CCOCC2)c(Cl)c1,inactive: > 76.9 µM
11,CN(C)c1oc(-c2ccc(OCc3ccccc3)cc2)nc1C#N,inactive
12,CCOC(=O)C1CCCN(S(=O)(=O)c2c(C)c(C)cc(C)c2C)C1 (stereo not given),inactive: > 76.9 µM
13,CCC(C)[C@H](N)c1nnc(SCC(=O)Nc2cccc(Cl)c2)o1 (stereo not given in full),inactive: > 76.9 µM
14,O=C1C2CC=CCC2C(=O)N1c1nc2n(n1)C(c1ccccc1)CC(c1ccccc1)N2 (stereo not given),inactive: > 76.9 µM
15,CCOc1cccc(-c2nnc(SCC(=O)Nc3cc(C)ccc3OC)n2N)c1,inactive: > 76.9 µM
16,Cc1nc(NCCO)c2nnn(Cc3ccccc3F)c2n1,inactive: > 76.9 µM
17,Cc1cc(C(F)(F)F)nc(SCC(=O)NC2=NC(=O)C(C)S2)n1 (stereo not given),inactive: > 76.9 µM
18,Cc1cccc(OCC(=O)Nc2ccccc2N2CCCCC2)c1,inactive: > 76.9 µM
19,COc1ccc(C2C3C(=O)N(Cc4ccccc4)C(=O)C3ON2c2ccccc2)c(OC)c1OC (stereo not given),inactive: > 76.9 µM
20,COc1ccc(C2C(C(=O)NCc3ccccc3)=C(C)Nc3ncnn32)cc1OC (stereo not given),inactive: > 76.9 µM
21,CC(OC(=O)c1cccs1)C(=O)NCc1ccc2c(c1)OCO2 (stereo not given),inactive: > 76.9 µM
22,COc1ccc(NC(=O)c2ccccc2NC(=O)C2CCCO2)cc1 (stereo not given),inactive: > 76.9 µM
23,CCOC(=O)c1cc(-c2ccccc2)sc1NC(=O)CSc1nnnn1C,inactive: > 76.9 µM

row,Compound,Potency
1,CCN(CC)CCOC(=O)c1ccc(NC(=O)COc2cc(=O)n(CC)c3ccccc23)cc1,inactive
2,CCOC(=O)C1CCCN(CCC(=O)Nc2ccc3c(c2)CCC3)C1 (stereo not given),inactive: > 76.9 µM
3,COc1ccccc1-c1cc(C(=O)NCc2ccc(F)cc2)no1,active: 9.91 µM
4,CCOC(=O)C(NCc1ccccc1OC)(NC(C)=O)C(F)(F)F (stereo not given),inactive: > 76.9 µM
5,CCOC(=O)c1[nH]c(C)c(/C(O)=C2\C(=O)C(=O)N(CCN(C)C)C2c2cccc(OC)c2OC)c1C (stereo not given),inactive: > 76.9 µM
6,Cn1c(=O)c(=O)n(C)c2cc(S(=O)(=O)N3CCC(Cc4ccccc4)CC3)ccc21,inactive: > 76.9 µM
7,CCC(=O)OC1(C#CCOc2ccc(OC)cc2)CCN(C)CC1,inactive: > 76.9 µM
8,CCOCCCNC(=O)C1CC(=O)N(C2CCCC2)C1 (stereo not given),inactive: > 76.9 µM
9,CCOc1ccc(S(=O)(=O)N2CCN(C(=O)c3cccn3C)CC2)cc1,inactive: > 76.9 µM
10,Cc1ccc(-c2csc(N)n2)s1,inactive: > 76.9 µM
11,CCOC(=O)Nc1ccc2c(c1)N(C(=O)OC)c1ccccc1CC2,inactive: > 76.9 µM
12,CCOC(=O)COc1c(OC)cc(Cl)cc1C1NC(=O)NC(C)=C1C(C)=O (stereo not given),inactive: > 76.9 µM
13,Cc1nc(N)c(C#N)c(-c2ccccc2)c1C,inactive: > 76.9 µM
14,CCCCC(=O)Nc1ccc(NC(=O)c2ccccc2OC)cn1,inactive: > 76.9 µM
15,Cc1ccc(S(=O)(=O)n2nc(-c3ccco3)nc2SCc2ccccc2)cc1,inactive: > 76.9 µM
16,CCOc1nc(-c2ccccc2)ccc1-c1noc(-c2ccncc2)n1,inactive: > 76.9 µM
17,CCN(CCCNC(=O)C1CCC(=O)N1Cc1ccc(F)cc1)c1cccc(C)c1 (stereo not given),active: 14.9 µM
18,CCOC(=O)NC(NC(=O)OCC)C(=O)c1ccc(F)cc1,inactive: > 76.9 µM
19,O=C1C2C3C=CC(C3)C2C(=O)N1CC1CCCO1 (stereo not given),inactive: > 76.9 µM
20,CCCc1nc2sc3c(SCC(=O)NCc4ccco4)ncnc3c2c2c1CCC2,inactive
21,COc1ccc(C(=O)N(c2ccccc2)C2C=CS(=O)(=O)C2)cc1 (stereo not given),inactive: > 76.9 µM
